Data taken from US20230174604A1.

Target: T1, IL-2Rβ IH-Biotin (biotin-labeled human IL-2Rβ, UniProt P14784 aa27-240, with C-terminal avi tag and His6 tag) (human), P14784
T1 sequence: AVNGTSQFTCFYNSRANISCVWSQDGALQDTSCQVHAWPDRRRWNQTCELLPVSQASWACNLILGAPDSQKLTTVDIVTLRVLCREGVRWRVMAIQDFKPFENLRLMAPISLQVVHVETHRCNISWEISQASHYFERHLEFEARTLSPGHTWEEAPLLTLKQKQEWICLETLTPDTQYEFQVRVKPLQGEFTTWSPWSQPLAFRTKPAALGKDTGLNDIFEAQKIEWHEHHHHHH
Assay: ForteBio BLI, biotinylated receptor on SA sensor, 100 nM IL-2-FC in solution, 1:1 model (avidity)
Conditions: remark: other sources report otherwise

B1: IL-2^3X-FC fusion protein (IL-2^.3X-2*(G4S)-FcLALA) (Fc fusion)
chain: APTSSSTKKTQLQLEHLLLDLQMILNGINNYKNPKLTDMLTFEFYMPKKATELKHLQCLERELKPLEEVLNLAQSKNFHLRPRDLISNINVIVLELKGSETTFMCEYADETATIVEFLNRWITFSQSIISTLTGGGGSGGGGS[here human IgG1 Fc with changes without letters]
modifications: here or on the partner: biotin on the avi tag (enzymatic labeling with BirA)
Kd: 16 nM
